About 150 (0.041%) of roughly 370,000 compounds were called active. The inconclusive results got no clear call from the source; some entries with a clear call stand among them for comparison. Calls follow the shape of the dose curve; as a rule, active = well fitted inhibition curve with a large enough effect; inconclusive = small, poorly fitted or top-dose-only effect; inactive = flat fitted curve, though single readings scatter. Potencies of inconclusive entries are left out as doubtful fits.
Each molecule was assayed against Beta-lactamase (Escherichia coli (strain K12)) (UniProt P00811) (assay: qHTS Inhibitors of AmpC Beta-Lactamase (assay with detergent)). Conditions: AmpC hydrolysis of nitrocefin, absorbance 480 nm, 0.01% Triton; activity change, negative = inhibition: at 114 µM (top of the series).
Sequence of UniProt P00811 (P00811 whole entry, looked up): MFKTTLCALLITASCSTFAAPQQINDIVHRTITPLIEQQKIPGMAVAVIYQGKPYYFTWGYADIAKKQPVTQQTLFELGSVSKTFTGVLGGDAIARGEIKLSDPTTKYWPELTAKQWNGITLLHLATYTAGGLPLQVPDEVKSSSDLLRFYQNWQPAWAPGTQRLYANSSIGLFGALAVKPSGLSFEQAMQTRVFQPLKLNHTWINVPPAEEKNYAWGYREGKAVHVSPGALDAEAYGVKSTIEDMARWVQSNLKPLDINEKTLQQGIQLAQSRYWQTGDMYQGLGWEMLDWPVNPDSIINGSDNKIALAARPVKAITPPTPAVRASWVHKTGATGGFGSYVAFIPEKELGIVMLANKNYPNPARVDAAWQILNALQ
How it was run: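 AmpC (5.3 nM in the dispensed reagent) in 20 mM phosphate pH 7.0 with 0.01% (detergent screen) or 0.0001% Triton X-100 was preincubated with compounds for 15 min at room temperature. Nitrocefin was then added from an 800 uM solution, and hydrolysis was followed at 480 nm.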
Also: nearly all actives have a fitted effect of over 25% in size.
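For activity change, negative = inhibition in this document: 0% = no-compound wells and -100% = no-enzyme wells.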
Potency is read from the fitted curve at half-maximal effect; tags tell the direction and shape of the fitted curve.

Structure (SMILES)	activity change, negative = inhibition	Potency
Cc1ccc2cccc(NC(=O)c3ccc(OC(C)C)cc3)c2n1	inactive: -6.92%	–
O=C(NCc1ccc2c(c1)OCO2)c1ccc2c(c1)N(Cc1ccccc1F)C(=O)c1ccccc1S2	inactive: 0.119%	–
CN(CC(=O)Nc1ccc(Cl)c(C(F)(F)F)c1)C(=O)c1cccc2cccnc12	–	inconclusive [inhibitor, full curve]
NC(=O)c1ccc(N=Nc2c(O)c3ccccc3[nH]c2=O)cc1	–	inconclusive [inhibitor, single point]
COc1ccc(OCCC(=O)OCC(=O)NCc2ccccc2OC)cc1	–	inconclusive [inhibitor, partial curve, poor fit]
Nc1cc(Br)c(N)c(Br)c1	–	inconclusive [inhibitor, partial curve, poor fit]
Cc1ccc(NC2=C(Cl)C(=O)OC2OC(=O)c2ccccc2)c(C)c1 (centres undefined)	–	inconclusive [inhibitor, full curve]
Cc1cc(Cl)c(S(=O)(=O)NC(C)C)cc1OCC(N)=O	–	inconclusive [inhibitor, partial curve, poor fit]
COc1ccccc1N1CCN(CC(O)c2ccc3cc[nH]c3c2)CC1 (centres undefined)	–	inconclusive [inhibitor, partial curve, poor fit]
O=C(Oc1ccc2[nH]cc(CCN3C(=O)c4ccccc4C3=O)c2c1)c1ccco1	–	inconclusive [inhibitor, partial curve]
CCN(CC)CCCN1C(=O)C(=O)/C(=C(/O)c2ccccc2)C1c1cc(OC)ccc1OC (centres undefined)	–	inconclusive [inhibitor, partial curve, poor fit]
Cc1ccccc1CNC(=O)c1ccc2nc(SCc3ccc(F)cc3)n(C)c2c1	inactive: 21.2%	–
COC(=O)c1c(NC(=O)c2ccc(S(=O)(=O)N3CCOCC3)cc2)sc2c1CCN(C)C2	–	inconclusive [inhibitor, single point]
CC(=O)C1=C(C)Nc2ncnn2C1c1cccc(Br)c1 (centres undefined)	–	inconclusive [inhibitor, partial curve]
Cc1nn(C)c(C)c1CNC(=O)Nc1ccc(Cl)cc1	inactive: 2.21%	–
Cc1cc(C)c(C(=O)NCCCN2CCOCC2)c(C)c1	–	inconclusive [inhibitor, partial curve, poor fit]
COc1ccc(C(C(=O)NCc2ccccc2)N(C(=O)c2snc(C(N)=O)c2N)c2ccccc2OC)cc1OC (centres undefined)	inactive: -0.739%	–
Cc1ccc2c(c1)N(C(=O)CCC(=O)NCCCN1CCC(Cc3ccccc3)CC1)CCO2	–	inconclusive [inhibitor, partial curve, poor fit]
COc1ccc(OCc2nnc3n2N=C(c2ccccc2)C(CC(=O)O)S3)cc1 (centres undefined)	–	inconclusive [inhibitor, full curve, poor fit]
Cc1ccc(NC(=O)CN(C)C(=O)Cc2ccc(Cl)c(Cl)c2)cc1	–	inconclusive [inhibitor, partial curve, poor fit]
CCn1c(-c2nonc2NC(=O)c2ccccc2)nc2ccccc21	–	inconclusive [inhibitor, full curve]
CCCCn1c(=NC(=O)c2cccnc2)c(C(=O)OCC)cc2c(=O)n3ccccc3nc21	–	inconclusive [inhibitor, full curve]

Structure (SMILES)	activity change, negative = inhibition	Potency
COc1ccc(NS(=O)(=O)c2cccc(C(=O)O)c2)cc1	–	inconclusive [inhibitor, full curve, poor fit]
O=C(NC1CCCC1)C(c1ccc(F)cc1)N(C(=O)Cc1cccs1)c1ccc2c(c1)OCCO2 (centres undefined)	inactive: -15.9%	–
Cc1ccccc1C(=O)NCC(=O)OC(C)C(=O)NC(C)CCc1ccccc1 (centres undefined)	–	inconclusive [inhibitor, full curve, poor fit]
COc1ccc(C(C)=O)cc1CSCCC#N	–	inconclusive [inhibitor, full curve]
C=CCN1C(=O)C2(OCCCO2)c2cc(C)ccc21	inactive: -6.41%	–
CC(Oc1cc2oc(=O)c3c(c2cc1Cl)CCC3)C(=O)N1C[C@H]2C[C@@H](C1)c1cccc(=O)n1C2 (some centres undefined)	–	inconclusive [inhibitor, partial curve, poor fit]
Cc1ccc(C2C(C#N)=C(N)N(c3cccnc3)C3=C2C(=O)CCC3)c(C)c1 (centres undefined)	–	inconclusive [inhibitor, full curve, poor fit]
O=C(Nc1ccncc1)Nc1cccc(Cl)c1	–	inconclusive [inhibitor, full curve, poor fit]
Cc1ccc(C(=O)Nc2sc(C)c(-c3ccccc3)c2C(N)=O)cc1[N+](=O)[O-]	inactive: -7.53%	–
Cc1cccc(C)c1OCc1cc(C(=O)N2CCC[C@H]2C(N)=O)no1	inactive: -4.69%	–
CC(C)c1nc(CNC(=O)C2CCC(=O)N(CCc3ccc(Cl)cc3)C2)no1 (centres undefined)	–	inconclusive [inhibitor, full curve]
CCC(C)[C@H]1COCCS(=O)(=O)N1Cc1ccccc1F (some centres undefined)	–	inconclusive [inhibitor, partial curve, poor fit]
CCOc1ccccc1C(=O)NCc1ccco1	–	inconclusive [inhibitor, full curve]
COc1cc(NC(C(=O)Nc2cccc(C(C)=O)c2)c2ccccc2)cc(OC)c1OC (centres undefined)	–	inconclusive [inhibitor, partial curve]
CCCCOc1ccc(C(=O)N(Cc2ccc(N(C)C)cc2)Cc2ccco2)cc1	inactive: 2.76%	–
CC(C)(C)n1nnnc1C(c1cccnc1)N1CCN(C2CCCCC2)CC1 (centres undefined)	–	inconclusive [inhibitor, full curve, poor fit]
CC(C)(C)c1ccc(-c2nc(NC(=O)CSc3ncnc4sc5c(c34)CCCC5)ns2)cc1	inactive: 27.6%	–
CN1c2ccsc2/C(=N/Nc2ccccc2)CS1(=O)=O	–	inconclusive [inhibitor, single point]
O=C(Cc1ccc(F)cc1)Nc1nc(-c2ccc(F)c(F)c2)cs1	inactive: -12.4%	–
COc1cc(NC(=O)Cn2c(=O)cc(C)c3c(C)nn(-c4ccc(C)cc4)c32)cc(OC)c1	–	inconclusive [inhibitor, full curve, poor fit]
CCc1ccc(-c2nc(CSCC(=O)NCc3ccco3)c(C)o2)cc1	inactive: -3.37%	–
CC(=O)c1cc(F)c(N2CCN(C(=O)COc3ccccc3F)CC2)cc1C	–	inconclusive [inhibitor, partial curve]

Structure (SMILES)	activity change, negative = inhibition	Potency
CN(Cc1ccco1)c1ncnc2ccc(-c3cccc(Cl)c3)cc12	–	inconclusive [inhibitor, full curve]
CCOC(=O)/C(C#N)=C1/C=CN(Cc2ccccc2)C=N1	–	inconclusive [inhibitor, full curve, poor fit]
Cc1ccc(CN2CCN(c3ccccc3)CC2)o1	–	inconclusive [inhibitor, partial curve, poor fit]
Cc1ccc(NC(=O)CN2C(=O)N/C(=C/c3ccccc3OCc3cccc(C(=O)O)c3)C2=O)cc1	–	inconclusive [inhibitor, partial curve, poor fit]
CC1CCN(CC#CCOc2ccc(Cl)cc2)CC1	inactive: -18.9%	–
CC(C)Cc1cc(C(=O)NCc2cccs2)no1	–	inconclusive [inhibitor, full curve, poor fit]
CCC(=O)OCCNc1cc(Sc2nc3ccccc3s2)c2nonc2c1[N+](=O)[O-]	–	inconclusive [inhibitor, full curve]
CCn1c(/C=N/Nc2ccc(C(=O)O)cc2)nc2ccccc21	–	inconclusive [inhibitor, partial curve, poor fit]
CCOc1ccccc1N(CC(=O)N1CCc2ccccc2C1)S(C)(=O)=O	–	inconclusive [inhibitor, full curve, poor fit]
CN(C)S(=O)(=O)c1ccc(C(=O)Nc2cccc(C(=O)N3CCOCC3)c2)cc1	–	inconclusive [inhibitor, full curve, poor fit]
O=C(NC1CCCCC1)[C@H](CSCc1ccccc1)N1Cc2ccccc2C1=O	–	inconclusive [inhibitor, full curve, poor fit]
O=C(CSc1n[nH]c(-c2ccc(S(=O)(=O)NC3CCCCC3)cc2)n1)N1CCCC1	–	inconclusive [inhibitor, full curve, poor fit]
COc1cc(Cn2ccnc2)c(OC)cc1Cn1ccnc1	–	inconclusive [inhibitor, partial curve, poor fit]
O=C(c1ccc(COc2ccccc2Cl)o1)N1CCN(c2ccccc2)CC1	–	inconclusive [inhibitor, full curve, poor fit]
C/C(=N\Nc1cc(N2CCOCC2)ncn1)c1ccc(O)cc1	–	inconclusive [inhibitor, full curve, poor fit]
COc1cccc(CNC(=O)C(=O)N2CCC3(CC2)OCCN3S(=O)(=O)c2ccc(C)cc2)c1	–	inconclusive [inhibitor, full curve]
O=[N+]([O-])c1cc(Cl)c(O)c(-[n+]2c(-c3ccccc3)cc(-c3ccccc3)cc2-c2ccccc2)c1	–	inconclusive [inhibitor, full curve]
CC(=O)NC(Cc1ccccc1)C(=O)NC1CCN(C(=O)c2cnccn2)CC1 (centres undefined)	inactive: 11%	–
CC(C)c1ccc(COC(=O)CN2C(=O)NC3(CCCCC3C)C2=O)cc1 (centres undefined)	–	inconclusive [inhibitor, full curve]
COc1ccc(CCNC(=O)CNC(=O)c2ccc3c(c2)OCO3)cc1OC	–	inconclusive [inhibitor, full curve, poor fit]
